Results as given in article PMC4336329 (PLoS ONE, 2015).
Out of some 310,000 compounds screened, about 14,000 (4.5%) showed an effect of 50% or more. The effect is printed as a negative number. The list shows a part of the results.

The compounds below were run against human ether-à-go-go-related gene (hERG) potassium channel (human, UniProt Q12809) (assay: primary screen, population patch clamp on CHO cells stably expressing hERG).
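Also: peak tail current of the secondary pulse compared with the same well before compound.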

Sequence of human ether-à-go-go-related gene (hERG) potassium channel (Q12809 whole entry, looked up): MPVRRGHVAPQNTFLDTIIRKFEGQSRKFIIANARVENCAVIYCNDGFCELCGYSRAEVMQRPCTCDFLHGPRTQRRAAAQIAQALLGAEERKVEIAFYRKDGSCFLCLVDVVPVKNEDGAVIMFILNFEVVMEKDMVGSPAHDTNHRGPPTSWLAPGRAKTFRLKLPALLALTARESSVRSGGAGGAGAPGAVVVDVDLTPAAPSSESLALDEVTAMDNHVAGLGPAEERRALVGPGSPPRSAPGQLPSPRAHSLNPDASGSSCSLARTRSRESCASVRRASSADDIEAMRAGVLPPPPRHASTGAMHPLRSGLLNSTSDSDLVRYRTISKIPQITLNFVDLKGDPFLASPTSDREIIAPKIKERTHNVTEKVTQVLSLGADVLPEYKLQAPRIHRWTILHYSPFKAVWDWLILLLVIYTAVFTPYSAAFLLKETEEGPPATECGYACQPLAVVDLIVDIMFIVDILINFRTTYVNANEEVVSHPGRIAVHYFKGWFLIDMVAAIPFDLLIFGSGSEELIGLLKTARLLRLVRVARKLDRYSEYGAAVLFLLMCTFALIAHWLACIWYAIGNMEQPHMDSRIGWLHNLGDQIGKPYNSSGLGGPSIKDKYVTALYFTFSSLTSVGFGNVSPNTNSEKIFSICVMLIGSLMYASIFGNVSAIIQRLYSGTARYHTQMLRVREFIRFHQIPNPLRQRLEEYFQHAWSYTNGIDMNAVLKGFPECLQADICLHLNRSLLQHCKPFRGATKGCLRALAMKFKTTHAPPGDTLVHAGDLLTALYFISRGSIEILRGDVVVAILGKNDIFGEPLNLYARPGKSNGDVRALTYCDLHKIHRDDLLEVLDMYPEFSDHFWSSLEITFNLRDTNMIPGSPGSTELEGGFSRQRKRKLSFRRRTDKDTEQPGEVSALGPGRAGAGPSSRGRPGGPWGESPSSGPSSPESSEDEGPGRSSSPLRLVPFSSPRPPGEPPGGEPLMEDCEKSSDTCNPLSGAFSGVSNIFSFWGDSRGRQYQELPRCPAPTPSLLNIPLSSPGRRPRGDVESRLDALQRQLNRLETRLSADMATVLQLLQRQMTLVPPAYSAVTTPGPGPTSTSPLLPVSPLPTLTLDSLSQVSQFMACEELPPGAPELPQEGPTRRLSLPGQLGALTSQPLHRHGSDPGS

Structure (SMILES) | hERG current change (%, negative = inhibition) at 10uM [%]
O=C1NC(=O)N(Cc2ccc(F)cc2)C(=O)/C1=C/c1cccs1 | 25.5
CN(Cc1ccccc1)C1=CC(=[N+]2CCCCC2)CC(C)(C)C1.[I-] | -54.3
CCCCNC(=S)N(C)/N=C/c1ccc2c(c1)OCO2 | -50.1
Cc1ccc(S(=O)(=O)N(C)c2ccc(C(=O)Nc3ccccn3)cc2)cc1 | -1.56
O=C(NCc1ccco1)C1CC(=O)N(CCc2ccccc2)C1 (centres unmarked) | 1.48
O=C(NC1CC1)c1cccc(Nc2ccc(-c3ccc4c(c3)OCCO4)nn2)c1 | -34.2
COC(=O)CC1C(=O)NCCN1C(=O)CSc1nc2cc(Cl)ccc2o1 (centres unmarked) | 13.5
COC(=O)c1ccccc1S(=O)(=O)N1CCC(C(=O)NCc2ccco2)CC1 | -9.91
Cc1ccc(C2CC(c3cccc(C)c3)n3nc(N)nc3N2)cc1 (centres unmarked) | -15.8
CCOC(=O)Cc1nc(-c2cccc(C(F)(F)F)c2)no1 | -0.739
C[C@@H](C[C@@H](O)[C@H](O)C(C)(C)O)[C@@H]1CC[C@]2(C)C3=CC[C@H]4C(C)(C)C(=O)CC[C@]4(C)[C@H]3CC[C@@]12C | 11.1
Cc1ccc(O)c(C(=O)c2cnc3c(c2)CN(C)C(=O)N3)c1 | 4.84
Cc1ccc(CNC(=O)CCC(=O)Nc2nnc(C3CCCCC3)s2)cc1 | 17.6
COC(=O)C1CC(=O)c2sccc2C1 (centres unmarked) | 4.62
Nc1ccc(-c2ccc(N)c([N+](=O)[O-])c2)cc1[N+](=O)[O-] | 11.5
COc1ccc(CN=C2NC(=O)CC(C(=O)Nc3cc(C)cc(C)c3)S2)cc1 (centres unmarked) | -18.4
O=C(NCc1ccco1)c1ccc(Cl)c(S(=O)(=O)N2CCCC2)c1 | -9.61
O=C1OC/C(=C(/O)c2ccc(Cl)cc2)C1=O | 17
Cc1ccc2nc(SCC(=O)Nc3cccc4ccccc34)nc(=O)n2c1 | -14
CC(C)CCNC(=O)C(C)N(C(=O)c1snc(C(N)=O)c1N)c1cnc2ccccc2c1 (centres unmarked) | -7.43
O=C(Nc1cccc(S(=O)(=O)N2CCCCCC2)c1)C1CCN(C(=O)c2ccc(F)cc2)CC1 | -88
CCc1c(C)c(C#N)c2nc3ccccc3n2c1NCc1ccco1 | -35.4
COCCC(=O)N1CCC(Oc2ccc(C(=O)NCCC3=CCCCC3)cc2)CC1 | -37.5

Structure (SMILES) | hERG current change (%, negative = inhibition) at 10uM [%]
O=C(O)c1ccc(CSc2ncn[nH]2)cc1 | 0.736
NC(=O)[C@H]1CC2(CC(c3cccc(NC(=O)COc4ccc(Cl)cc4)c3)=NO2)CN1C(=O)Cc1ccc([N+](=O)[O-])cc1 (some centres unmarked) | -19.3
CC1CN=C(Nc2ccc(F)cc2)S1 (centres unmarked) | 5.03
CC(c1nccs1)N(C)C(=O)c1cn(Cc2cccc3ccccc23)nn1 (centres unmarked) | -11.8
O=C(CCN1C(=O)C2CC=CCC2C1=O)Nc1cccc(S(=O)(=O)N2CCCCC2)c1 (centres unmarked) | -11.2
CC(C)N1CC(C(=O)Nc2cc(Cl)cc(Cl)c2)CC1=O (centres unmarked) | -15.1
COc1cc2c(cc1/C=C1/NC(=O)N(c3ccccc3)C1=O)OCO2 | 2.32
Cc1ccccc1NC(=O)c1cc2c(=O)n3cccc(C)c3nc2s1 | -1.7
O=C1Nc2cc(C(F)(F)F)ccc2N2CCCCC12 (centres unmarked) | 10.3
O=C(CSc1nc2ccccc2[nH]1)Nc1ccc2c(c1)CCC2 | 17.3
O=C(NCc1n[nH]c(=S)n1Cc1ccccc1)c1ccc(Cl)cc1Cl | -0.26
CCn1c(CC(=O)Nc2ccc(Cl)cc2)nnc1SCC(=O)N1CCOCC1 | 10.9
O=C(NC1CCCN(Cc2ccc(Cl)cc2)C1)c1cccc(N2CCCC2=O)c1 (centres unmarked) | -14.8
COc1cc(SC)ccc1C(=O)Nc1ccc(Br)cn1 | 14.4
O=C(Nc1ccc(N2CCCCC2)c(Cl)c1)c1ncn[nH]1 | 0.294
O=C(C[C@@H]1NS(=O)(=O)OC2CCCCC21)c1ccccc1 (some centres unmarked) | -14.2
Cc1ccc(S(=O)(=O)Cn2nnnc2C(C(C)C)N2CCc3ccccc3C2)cc1 (centres unmarked) | 2.53
O=C(O)/C(=C/c1ccco1)NC(=O)c1ccccc1 | -2.2
COc1ccc(OC)c(-c2nnc(SCC(=O)N3CCCC3)o2)c1 | 5.59
O=C(NCc1ccco1)C(=O)c1cn(CC(=O)N2CCCCC2)c2ccccc12 | 19.3
Cc1cccc2cc(C#N)c(NCCNC(=O)NC3CCCCC3)nc12 | 5.16
COc1ccc(N2C(=O)CC(NCc3ccc(F)cc3)C2=O)cc1 (centres unmarked) | 7.01
O=C(NCCCN1CCN(c2ccc(F)cc2)CC1)Nc1ccc([N+](=O)[O-])cc1 | -73.9

Structure (SMILES) | hERG current change (%, negative = inhibition) at 10uM [%]
C/C(=N\NC(=O)C1CC1)c1ccc(Cl)c(Cl)c1 | 0.96
CCNC(=S)NNc1ccccc1 | -2.53
N=C1C(c2ccccc2)=C(O)CN1c1cccc(O)c1 | 21.4
O=[N+]([O-])c1cc(C(F)(F)F)ccc1NCCCCNS(=O)(=O)c1ccc2ccccc2c1 | -11.3
Cc1cc(C)cc(NC(=O)CCN2CCCC2)c1 | -15.8
Cc1nc2nc(CC(=O)O)[nH]n2c(=O)c1[N+](=O)[O-] | 12.1
CCC(=NCCc1c(C)[nH]c2ccccc12)C1=C(O)CC(c2ccccc2)CC1=O (centres unmarked) | 6.02
CCCNS(=O)(=O)c1ccc(OCC(=O)N2CCN(Cc3ccc4c(c3)OCO4)CC2)cc1 | -32
Cn1cc(S(=O)(=O)c2ccccc2)c(=O)c2cc(Cl)ccc21 | 75
O=C(C1CCC1)N1CCc2cc(S(=O)(=O)NCCCN3CCCCC3)ccc21 | 9.4
O=C1SC(c2ccccc2)=N/C1=C/c1ccco1 | 1.39
COC(=O)Cc1c(C)c2c(O)cc(C)cc2oc1=O | -0.918
O=C(OCc1ccc(O)cc1)c1c(-c2ccsc2)oc2ccc(N3CCOCC3)cc12 | 2.97
CN(C)c1nc(N2CCN(c3ccccc3)CC2)c(C#N)c(=O)o1 | -16.9
CC(=O)NNC(=S)NCCc1ccccc1 | 9.42
CCOc1ccc(C(=O)Nc2cccc(C(C)=O)c2)cc1[N+](=O)[O-] | -26.2
COc1ccc(C)cc1N(CC(=O)Nc1ccc(S(=O)(=O)N2CCOCC2)cc1)S(C)(=O)=O | -9.84
COc1ccc(OCC(=O)NC2CCCN(Cc3ccc(Cl)cc3)C2)cc1 (centres unmarked) | -29.4
O=C(NC(CO)c1ccccc1)c1ccco1 (centres unmarked) | 12.4
c1ccc(CCCc2nc(-c3cccnc3)no2)cc1 | 19.2
COc1cc(CCCN2C(=O)C(=O)NC[C@@H]2c2ccccc2)cc(OC)c1OC | 3.38
CCOC(=O)c1ccc(NC(=O)c2c(N)n(Cc3ccccc3)c(=O)[nH]c2=O)cc1 | 38.7
COc1ccccc1CNC(=O)COC(=O)c1cc(C)oc1C | 0.456

Structure (SMILES) | hERG current change (%, negative = inhibition) at 10uM [%]
COc1ccc(NC2=NC(=S)N(c3ccccc3C)C23CCCCC3)cc1 | 10.6
CCCCNC(=S)Nc1cc([N+](=O)[O-])ccc1C | 11.6
Cc1ccc(NC(=O)C2CCC(N3C(=O)C4CCCCC4C3=O)CC2)cc1 (centres unmarked) | 0.246
Cc1ccccc1-n1c(Cc2cccs2)n[nH]c1=S | 14.3
O=C(NCC1CCCO1)c1csc2c1CCCC2 (centres unmarked) | 5.69
CC(=O)Nc1ccc(S(=O)(=O)N(C)Cc2cnn(C)c2)cc1 | 8
O=[N+]([O-])c1nn(-c2ccc3c(c2)OCCO3)n(O)c1=NC1CCCCC1 | -8.03
O=C1NC(=S)S/C1=C/c1ccc(N2CCOCC2)o1 | 9.27
O=C(OCCCc1cc2ccccc2c(=O)o1)c1ccc2c(c1)OCO2 | -12.9
O=C(O)c1nnn(-c2ccc(F)cc2F)c1-c1ccccc1 | 11.9
CCOC(=O)N1CCC(NC(=O)c2cc3cc4cc(OC)ccc4nc3o2)CC1 | -16.2
N#CC1=C(N)OC2=C(C(=O)CCC2)C1c1cc2c(cc1Cl)OCO2 (centres unmarked) | -1.45
Cn1c(CSc2nc3ccccc3s2)nc2ccccc21 | -19.6
O=C(c1cc(F)ccc1F)C1CCCN(C(=O)c2ccco2)C1 (centres unmarked) | -2.45
CCOc1ccc(NC(=O)CSc2nnc(Cc3csc(C)n3)o2)cc1 | 6.77
CCOC(=O)c1ccc(NC(=O)CSc2nc(=O)n(CCN3CCOCC3)c3c2CCC3)cc1 | -32
Cc1cc(C)n(-c2nc(-c3ccc(Cl)c(Cl)c3)cs2)n1 | 4.19
COc1ccc(Nc2ncccc2C(=O)O)cc1 | 1.98
Cc1ccc(-c2nc(SCC(=O)NCC3CCCO3)c(-c3ccc(Cl)cc3)[nH]2)cc1 (centres unmarked) | 8.85
O=C(CCNC(=O)c1ccccc1Cl)NCC(c1ccc(F)cc1)N1CCOCC1 (centres unmarked) | 8.07
